Experimental data published in PubChem BioAssay AID2546 (National Center for Advancing Translational Sciences (NCATS), 2010).
Screen size: about 310,000 compounds; about 11,000 (3.5%) were called active. The inconclusive results got no clear call from the source; some entries with a clear call stand among them for comparison. Calls follow the shape of the dose curve; as a rule, active = well fitted inhibition curve with a large enough effect; inconclusive = small, poorly fitted or top-dose-only effect, or effect the other way; inactive = flat fitted curve, though single readings scatter. Potencies of inconclusive entries are left out as doubtful fits.
% is scaled to controls: 0 for no effect and ±100 for the full control effect; potency is read from the fitted curve at half-maximal effect; tags tell the direction and shape of the fitted curve.

Assay: VP16 counterscreen qHTS for inhibitors of ROR gamma transcriptional activity;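 also: Gal4-VP16 expression switched on by copper sulfate through the metallothionein promoter; nearly all actives have a fitted effect of over 50% in size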
Conditions: Drosophila S2 Gal4-VP16 UAS-luciferase, luminescence, 20 h; activity, negative = inhibition: at 53.6 µM (top of the series)
With CS(=O)(=O)c1ccc2nc(NC(=O)c3cccc([N+](=O)[O-])c3)sc2c1 the Potency was inconclusive [inhibitor, single point]. In the case of CCCc1nc(NCc2ccccn2)c2nnn(Cc3ccccc3F)c2n1, the Potency is reported as inconclusive [inhibitor, single point]. In the case of C/C(CC(=O)c1ccccc1)=N\NC(=O)CC#N, the Potency is reported as inconclusive [inhibitor, single point]. With CCOc1ccccc1NC(=O)c1c(NC(=O)CNCc2ccco2)sc2c1CCC2 the Potency was active: 5.62 µM. For O=C(OCC1OC(n2cnc3c(N(C(=O)c4ccccc4)C(=O)c4ccccc4)ncnc32)C(O)C1F)c1ccccc1 (centres undefined), the Potency was inconclusive [inhibitor, partial curve]. In the case of O=C(CSc1nnc(NC2CCCCC2)s1)Nc1ccc2c(c1)C(=O)c1ccccc1C2=O, the “activity, negative = inhibition” value is reported as inactive: -20.5%. In the case of O=C(c1ccc(Oc2ccccc2)cc1)c1nc2c(n1O)CCCC2, the Potency is reported as inconclusive [inhibitor, single point]. For CC1Cc2cc(S(=O)(=O)NCCc3ccccc3)ccc2N1C(=O)C1CC1 (centres undefined), the Potency was inconclusive [inhibitor, single point]. For Cc1cc(=O)oc2cc(OC(=O)c3nn(C(C)C)c(=O)c4ccccc34)ccc12, the “activity, negative = inhibition” value was inactive: -3.68%. With CCOc1cc(NC(=O)CCl)c(OCC)cc1NC(C)=O the Potency was inconclusive [inhibitor, single point]. In the case of CCc1c(C)nn(C(=O)/C(C#N)=C\N(C)C)c1C, the “activity, negative = inhibition” value is reported as inactive: 0.519%. With COc1ccccc1OCC(=O)Nc1cccc(-c2nnc(-c3ccco3)o2)c1 the “activity, negative = inhibition” value was inactive: 5.4%. In the case of S=C(Nc1cc(Cl)ccc1Oc1ccccc1)N1CCN(c2ccccn2)CC1, the Potency is reported as inconclusive [inhibitor, single point]. In the case of C/C=C\C=C/C(=O)Nc1cccc(C2=NOC3(C2)C[C@H](C(N)=O)N(C(=O)CC)C3)c1 (some centres undefined), the “activity, negative = inhibition” value is reported as inactive: 4.08%. In the case of COc1ccc(-c2nn(-c3ccccc3)cc2/C=C2/SC(=S)N(CCCC(=O)O)C2=O)c(C)c1, the Potency is reported as inconclusive [inhibitor, single point]. With COc1cccc(/C=C/c2ccc3cccc(O)c3n2)c1OC the Potency was active: 5.62 µM. In the case of CCOC(=O)/C(O)=C/c1ncc(C(F)(F)F)cc1Cl, the Potency is reported as active: 10 µM. For CC(/C=C/c1ccccc1)=N\NC(=O)CNC(=O)c1ccccc1Cl, the “activity, negative = inhibition” value was inactive: 6.37%. With CCN(CC(=O)Nc1ccc2c(c1)OC(F)(F)O2)Cc1nc2ccccc2c(=O)[nH]1 the Potency was inconclusive [inhibitor, single point]. With O=C(CSc1ncnc2c1cnn2-c1ccc(F)cc1)NC1CCCC1 the Potency was inconclusive [inhibitor, single point]. With N/C(=N\OC(=O)c1ccc(Br)cc1)c1ccccc1 the Potency was inconclusive [inhibitor, single point]. In the case of C/C(=N\NC(=O)COc1ccc(C)cc1C(C)C)c1ccc(-n2ccnc2)cc1, the Potency is reported as inconclusive [inhibitor, single point]. In the case of COc1ccc(-c2n[nH]c(=S)n2/N=C/C=C\c2ccccc2OC)cc1, the Potency is reported as inconclusive [inhibitor, full curve]. For CC(=O)c1cc(C#N)c(SCc2ccncc2)nc1C, the “activity, negative = inhibition” value was inactive: 5.97%. With C[C@@H]1CC[C@H](O)/C=C/C(=O)O[C@H](C)CC[C@H](O)/C=C/C(=O)O1 the Potency was active: 6.31 µM. For O=C(Nc1nnc(-c2ccc3c(c2)OCCO3)o1)c1ccc(Cc2ccccc2)cc1, the Potency was active: 7.08 µM. For O=C(CCS(=O)(=O)c1ccccc1)Nc1ccc(Cl)cn1, the Potency was inconclusive [inhibitor, single point]. For Cc1ccc(Oc2nc(-c3ccccn3)nc3ccccc23)cc1, the Potency was active: 3.16 µM. In the case of Cc1ccc(C(=O)Nc2ccc3c(c2)OCCO3)o1, the Potency is reported as inconclusive [inhibitor, partial curve]. For CCOc1cc(-c2cc(-c3ccc(NC(C)=O)cc3)nc(N)c2C#N)ccc1O, the Potency was inconclusive [inhibitor, single point]. With Cc1c(C(=O)OC/C(O)=C(\C#N)c2nc3ccccc3[nH]2)oc2ccccc12 the Potency was inconclusive [inhibitor, single point]. With Cc1ccc(S(=O)(=O)/C(=C/Cl)NC(=O)c2ccccc2)cc1 the Potency was inconclusive [inhibitor, single point]. In the case of CC(C)CCC[C@@H](C)[C@@H]1CC[C@H]2C3=CC=C4CC(O)CC[C@]4(C)[C@H]3CC[C@@]21C (some centres undefined), the Potency is reported as inconclusive [inhibitor, single point]. In the case of Cc1ccc(NC(=O)COC(=O)c2nn(C)cc2Cl)cc1, the Potency is reported as inconclusive [activator, single point]. In the case of CC(C)C(=O)Nc1cccc(-c2csc(-c3ccccc3)n2)c1, the Potency is reported as inconclusive [inhibitor, single point]. With Cc1cc(C)nc(N/C(=N\S(=O)(=O)Cc2ccccc2)Nc2ccc(F)c(Cl)c2)n1 the Potency was inconclusive [activator, single point]. For O=C(CCNC(=O)C1CCN(S(=O)(=O)c2ccc(F)cc2)CC1)NCCc1ccc(Cl)cc1, the “activity, negative = inhibition” value was inactive: -5.97%. For COc1ccc(C(=O)NCCC2=CCCCC2)cc1, the Potency was inconclusive [inhibitor, partial curve]. In the case of Cc1ccccc1NC(=S)N1CCN(c2ccccc2C)CC1, the Potency is reported as active: 5.62 µM. In the case of O=S(=O)(Nc1ccc(Cl)c(C(F)(F)F)c1)c1cnc[nH]1, the Potency is reported as inconclusive [inhibitor, single point]. With O=C1CC(N2CCN(Cc3ccc(Cl)cc3)CC2)C(=O)N1CCc1ccccc1 (centres undefined) the “activity, negative = inhibition” value was inactive: -11.8%. In the case of CC(=O)NC1=C(N(C)C2CCS(=O)(=O)C2)C(=O)c2ccccc2C1=O (centres undefined), the Potency is reported as active: 7.94 µM. In the case of CCO[C@@H]1OC(C(=O)N2CCOCC2)=C[C@H](c2ccc(Br)cc2)[C@H]1CCCO, the Potency is reported as inconclusive [inhibitor, single point]. With C/C(CC(=O)Nc1ccc(Cl)cc1C(F)(F)F)=N\NC(N)=S the Potency was inconclusive [inhibitor, single point]. With COc1ccc(-c2nc(S(=O)(=O)c3ccccc3)c(N3CCOCC3)o2)cc1 the “activity, negative = inhibition” value was inactive: -0.632%. For NC(=S)COc1ccccc1, the “activity, negative = inhibition” value was inactive: -18.7%. In the case of CCC(C)NC(=S)Nc1ccc(C(=O)OC)cc1 (centres undefined), the Potency is reported as inconclusive [inhibitor, single point]. For N#CC1CCCc2c1[nH]c1ccc([N+](=O)[O-])cc21 (centres undefined), the “activity, negative = inhibition” value was inactive: 8.05%. For O=c1cc(-c2c(F)c(F)c(F)c(F)c2F)oc2c(F)c(F)c(F)c(F)c12, the Potency was active: 3.16 µM. For COC(=O)[C@@H]1CCCN1C(=O)CCc1nnc(CCC2CCCCC2)o1, the Potency was inconclusive [activator, single point]. In the case of O=C(O)c1cc(N/N=C/c2ccc(N3CCOCC3)cc2)ccc1Cl, the Potency is reported as inconclusive [inhibitor, single point]. In the case of O=C(Cc1ccccc1)N/N=C/c1ccc2cccc(O)c2n1, the Potency is reported as inconclusive [inhibitor, single point]. With O=C(CCCc1ccccc1)N1CCN(c2ccc([N+](=O)[O-])cc2)CC1 the Potency was inconclusive [inhibitor, single point]. In the case of Clc1ccc(N/N=C/c2cccs2)nn1, the Potency is reported as inconclusive [activator, single point]. For Cc1c(C2Nc3ccccc3NC3=C2C(=O)CC(C)(C)C3)cnn1C (centres undefined), the Potency was inconclusive [inhibitor, single point]. For CCCCCN1CC(=O)N2Cc3[nH]c4ccccc4c3C[C@H]2C1=O, the “activity, negative = inhibition” value was inactive: -12.1%. With Cc1ccc2nc(N3CCN(C(=O)c4ccc(F)cc4)CC3)c(C#N)cc2c1 the Potency was inconclusive [inhibitor, single point]. With Cn1nc(-c2ccc(Cl)cc2)c2cc(C(=O)N3CCN(C(=O)c4ccco4)CC3)sc21 the Potency was inconclusive [inhibitor, partial curve]. For CCN(CC)C(=O)CSc1nnc2nnc3cc(OC)ccc3n12, the Potency was inconclusive [inhibitor, partial curve]. For CCOC(=O)c1cc(-c2ccccc2)nc2nc(N(CC)CC)sc12, the Potency was inconclusive [activator, single point]. With COc1cccc(/C=C/C(=O)c2ccc3c(c2)OCCO3)c1OC the Potency was inconclusive [inhibitor, single point]. With CCN(CC)S(=O)(=O)c1ccc(OC)c(NC(=S)Nc2ccc(C)c(C)c2)c1 the Potency was inconclusive [inhibitor, single point]. For O=C(Nc1ccccc1)[C@@H]1[C@@H]2C(=O)N(c3ccc(F)cc3)C(=O)[C@@H]2[C@H]2C=CC=NN21, the Potency was inconclusive [inhibitor, single point]. For CC(C)CC(=O)Nc1ccc(S(=O)(=O)NCc2ccco2)cc1, the Potency was inconclusive [inhibitor, full curve]. With CC1=C(C#N)C(NC(=O)c2ccc(Cl)cc2)(C(F)(F)F)C(=O)N1 (centres undefined) the Potency was inconclusive [inhibitor, single point]. With Cc1ccccc1NC(=S)N(CCN1CCCCCC1)Cc1cccs1 the Potency was inconclusive [inhibitor, single point]. With Cc1ccc(S(=O)(=O)CCC(=O)c2ccc(O)cc2O)cc1 the Potency was inconclusive [inhibitor, single point]. For CCOC(=O)c1c(-c2ccc(OC)cc2)csc1NC(=O)C1CCCO1 (centres undefined), the “activity, negative = inhibition” value was inactive: -4.87%. In the case of O=C(Nc1ccc(C(F)(F)F)cc1)c1ccc(NC(=O)C2CCCO2)cc1 (centres undefined), the Potency is reported as inconclusive [inhibitor, single point].
